# Experimental data as given in PubChem BioAssay AID1508623 (National Center for Advancing Translational Sciences (NCATS), 2021).
# The campaign covered roughly 48,000 compounds. About 450 (0.94%) were called active. Inconclusive results (about 19%) are left out. Calls come from the whole dose curve; as a rule, active = well fitted inhibition curve with a large enough effect; inconclusive = small, poorly fitted or top-dose-only effect; inactive = no such curve, though single readings can be large or run the other way. This is one part of the list.
# Test: Primary qHTS for Identification of Small Molecule Inhibitors of Huntingtin Promoter Activity; note: nearly all actives have a fitted effect of over 50% in size
# Conditions: HEK293 HTT promoter firefly luciferase reporter (activity 0% = vehicle and -100% = no light), 24 h; series mostly up to 57.5 µM; activity change, negative = inhibition: at the top concentration
# Procedure, shortened: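 Firefly luciferase signal from promoter-reporter HEK293 cells was scaled between vehicle (0%) and zero RLU (-100%). Compounds were tested at final concentrations of up to 57.5 uM over 24 h at 37 degrees C. PTC124 at 50 uM final served as control inhibitor.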
# Potency is the fitted concentration of half-maximal effect.
Structure (SMILES),"activity change, negative = inhibition",Potency
Cc1cccc(CN2CCN(CC(=O)NCc3ccc(Cl)cc3)C2=O)c1,inactive: -12.5%,
Cc1cc(C)c2oc(C(=O)Nc3c(C(=O)Nc4ccccc4)oc4ccccc34)cc(=O)c2c1,inactive: 15%,
CCCCn1cc(S(=O)(=O)c2ccc(Cl)cc2)c(=O)c2cc(F)c(N3CCCCC3)cc21,inactive: 12.8%,
COc1ccccc1CNC(=O)c1c(O)nc2cc(C)ccn2c1=O,inactive: -9.48%,
Cc1nc2ccc(S(=O)(=O)NC(C(=O)NCc3ccc(Cl)cc3)C(C)C)cc2s1 (stereo unspecified),inactive: -12.2%,
Cc1cccc(C(=O)Nc2ccccc2C(=O)OCc2cc(=O)n3nc(C4CC4)sc3n2)c1,inactive: -13.1%,
CCOC(=O)c1c(-c2ccc(OC)c(OC)c2)csc1NC(=O)c1ccc(F)cc1,inactive: 2.56%,
Cc1cc(C(C)(C)C)c(O)c(C)c1CC1=NCCN1,inactive,
COc1cccc(N2C(=O)CSC23C(=O)N(CC(=O)NCc2ccc(C)cc2)c2ccccc23)c1 (stereo unspecified),inactive: -13.2%,
CSC1=NC2(CCN(C(=O)NC3CCCCC3)CC2)N=C1c1ccc(C(C)(C)C)cc1,inactive: -24.3% [at 11.5 µM],
NC(Cc1ccc(Cl)cc1)C(=O)O (stereo unspecified),inactive: -0.968% [at 0.739 µM],
CCCN(CCC)CCCNC(=O)c1cn(CC)c2ccc(S(=O)(=O)N3CCc4ccccc4C3)cc2c1=O,inactive: -6.04%,
COc1cccc(CNCCSc2nnnn2C)c1OCc1ccc(Cl)cc1,inactive: -14.9%,
CN(C)CCCN1c2ccccc2Sc2ccccc21,inactive: -5.4%,
CCc1ccc(Cn2nnc(C(=O)Nc3ccc(C)cc3)c2N)cc1,inactive: 18.6%,
CCOC(=O)c1ccc2c(c1)N(CC(=O)Nc1ccc(CC)cc1)C(=O)c1ccccc1S2,inactive: -16.6%,
COc1cc(NC(=O)Cn2cnc3sc(C)c(S(=O)(=O)N4CCN(C)CC4)c3c2=O)cc(OC)c1OC,inactive: -3.66%,
Cc1ccc(Nc2c(-c3ccc(N4CCOCC4)cc3)nc3ncccn23)cc1C,inactive: -28.9%,
CCOc1cccc(C(=O)Nc2ccc(NC(=O)c3ccc(Br)cc3)cc2)c1,inactive: -32.1%,
CCOC(=O)c1oc2ccc(S(=O)(=O)n3nc(-c4cc(OCC)c(OCC)c(OCC)c4)cc3N)cc2c1C,inactive: -19.2%,
CCc1ccc(N2CCn3c2nc2c3c(=O)n(CCCc3ccccc3)c(=O)n2C)cc1,inactive: 1.91%,

Structure (SMILES),"activity change, negative = inhibition",Potency
CCOc1ccc(-c2nonc2NC(=O)COc2ccccc2)cc1,inactive: -18.4%,
CCCc1cnc2c(c1SCC(=O)Nc1cccc(C)c1C)c(=O)n(C)c(=O)n2C,inactive: -3.02%,
CCN1CCN(c2cc3c(cc2F)c(=O)c(S(=O)(=O)c2cc(C)cc(C)c2)cn3CC)CC1,inactive: -11.6%,
COc1ccc(NC(=O)Cn2nnc(C(=O)Nc3ccc(C)c(F)c3)c2N)cc1Cl,inactive: -23.7%,
COc1ccc(CNC(=O)CN(c2ccc(OC)cc2)S(=O)(=O)c2c(C)[nH]c(=O)[nH]c2=O)cc1,inactive: -10%,
NS(=O)(=O)c1cc(C(=O)O)cc(N2CCCC2)c1Oc1ccccc1,inactive: -6.29%,
O=C(Cc1ccccc1F)N1CCC(c2nc3c(nnn3Cc3cccc(Cl)c3)c(=O)[nH]2)CC1,inactive: -37.8%,
Cc1cc(C)cc(OCCn2c(CCNC(=O)C3CCCCC3)nc3ccccc32)c1,inactive: -2.13%,
CCOc1ccc(NC(=O)c2c(NC(=O)c3ccccc3Br)sc3c2CCC(C)C3)cc1 (stereo unspecified),inactive: -4.33%,
CCOc1ccc(NC(=O)CC2C(=O)N(c3ccc(C)cc3)C(=O)N2Cc2ccc(OC)cc2)cc1 (stereo unspecified),inactive: -23.1%,
COc1ccc(OC)c(NC(=O)N(C)CCc2c(C)nn(C)c2C)c1,inactive: 16.9%,
CCC(=O)N1CCc2cc(Br)cc(S(=O)(=O)N(CC)Cc3ccccc3)c21,inactive: -3.43%,
Cc1cccc(N2CCN(c3ncnc4onc(C)c34)CC2C)c1 (stereo unspecified),,active: 12.6 µM
CCc1cccc(C)c1NC(=O)c1cn2c3c(ccc(Cl)c3c1=O)OC(C)C2 (stereo unspecified),inactive: -16.1%,
Cc1ccc(-c2nc3ncccc3o2)cc1NC(=O)c1ccc(-c2cccc(Cl)c2C)o1,inactive: -8.21%,
Cc1nc(-c2cccc(F)c2)sc1CCNC(=O)C(=O)Nc1ccc2c(c1)OCO2,inactive: -15.7%,
CCOc1ccc(S(=O)(=O)NCC(c2ccc(N(C)C)cc2)N2CCc3ccccc32)cc1 (stereo unspecified),inactive: -17.1%,
Cc1cc(-c2nc3ncccc3o2)ccc1NC(=O)c1ccc(Cl)cc1,inactive: 1.78%,
COC(=O)CSc1ccc2nnc(CCNS(=O)(=O)c3ccccc3)n2n1,inactive: -4.09%,
Cc1cccc(NC(=O)c2c(N)sc3c2CCC(C)C3)c1 (stereo unspecified),inactive: 40.8%,
Cc1ccccc1NC(=O)c1c(NC(=O)c2cccs2)sc2c1CCC(C)C2 (stereo unspecified),inactive: 3.15%,

Structure (SMILES),"activity change, negative = inhibition",Potency
O=C(Nc1ccc2nn(-c3ccc(Cl)cc3)nc2c1)c1cc2ccccc2o1,inactive: -20.2%,
COc1ccc(C(=O)NCC(c2ccco2)S(=O)(=O)c2cccs2)cc1 (stereo unspecified),inactive: -7.59%,
N#Cc1nc(/C=C/c2ccc(F)cc2)oc1NC1CCCCC1,inactive: -2.64%,
Cc1ccc(OCc2cc(=O)n3ccsc3n2)c(NC(=O)c2ccco2)c1,inactive: -3.12%,
COc1ccc(N(C)C(=O)C2CCN(S(=O)(=O)c3cc(Br)cc4c3N(C(C)=O)CC4)CC2)cc1,inactive: 0%,
COc1ccc(-c2nc3cc(NC(=O)c4cc5ccccc5o4)ccc3o2)cc1,inactive: 8.97%,
Cc1ccn2c(Nc3ccccc3C)c(-c3ccccc3)nc2c1,inactive: -16.4%,
Cc1cccc(OCC(=O)Nc2ccccc2OCc2cc(=O)n3cc(C)ccc3n2)c1,inactive: -4.26%,
CCn1ccc2cc(S(=O)(=O)N3CCC(C(=O)NCc4ccc(F)cc4)CC3)ccc21,inactive: -20.4%,
O=C(Cn1c(=O)n2nc(-c3cccc(F)c3)nc2c2ccccc21)NCc1ccc(Cl)cc1,inactive: 0.65%,
COc1cccc(NC(=O)Cn2c(=O)n(Cc3ccco3)c(=O)c3cc(OC)c(OC)cc32)c1,inactive: -13.6%,
COc1ccccc1CNC(=O)CS(=O)(=O)Cc1nc(-c2ccccc2C)oc1C,inactive: -9.88%,
CN(C)c1ccc(C(=O)NCc2ccc3c(c2)CCN3C(=O)c2ccccc2)cc1,inactive: -26.8%,
CC(C)CCNC(=O)CSc1nc2ccccc2nc1Cc1ccc(Cl)cc1,inactive: -2.04%,
CC1CCN(c2nc(-c3ccc(Br)cc3)nc3ccccc23)CC1,inactive: -7.97%,
CN(C)c1ccc(CNC(=O)c2sc3ncccc3c2-n2cccc2)cc1,inactive: -32.6%,
Cc1cc(C)cc(NC(=O)CCN2C(=O)c3ccccc3Sc3ncccc32)c1,inactive: -17.1%,
CC1CCCCN1CCCNC(=O)Cn1ncc2c3ccccc3n(Cc3ccccc3F)c2c1=O (stereo unspecified),inactive: 2.44%,
Cc1ccc(-c2cc(C(F)(F)F)c(C#N)c(SCC(=O)Nc3ccccc3F)n2)cc1,inactive: -23.3%,
